Measurements published in the supplement of paper PMC10300432.

Experiments:
[1] = target: SARS-CoV-2 Omicron BA.1 spike pseudovirus; assay: pseudovirus neutralization IC50; higher = weaker neutralization
Procedure: (§1)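 Single-round luciferase reporter pseudovirus mixed with antibody dilutions and put on HT1080-ACE2 clone 14 cells for 48 h; signal relative to no-antibody wells, four-parameter fit.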

[2] = target: SARS-CoV-2 Omicron BA.4/5 spike pseudovirus; assay: as above
Procedure: as §1

[3] = target: SARS-CoV-2 Wuhan-Hu-1 spike pseudovirus; assay: as above
Procedure: as §1

[4] = target: SARS-CoV-2 Wuhan-Hu-1 spike receptor-binding domain; assay: ELISA binding EC50; higher = weaker binding; ELISA of recombinant human antibody on coated antigen, from 10 µg/ml in fourfold dilutions; four-parameter fit.

B1: C5330 (protein)
chain 1: EVQLVQSGAEVKKPGESLRISCEGSGDILTSYWITWVRQMPGKGLEWMGRIDPSDSYTEYSPSFQGHITISADQSTSTAYLQWSSLKASDTAMYYCAIYVGGFYDGGTWGQGTMVTVSS
chain 2: DIQMTQSPSTLSASVGDRVTITCRASQSISSWLAWYQQKPGKAPKPLIYKASSLRSGVPSRFSGSGSGTEFTLTISSLQPDDFATYYCQQYNSYWTFGQGTKVEIK
pseudovirus neutralization IC50 [1]: > 1 µg/mL | pseudovirus neutralization IC50 [2]: > 1 µg/mL | pseudovirus neutralization IC50 [3]: > 1 µg/mL | ELISA binding EC50 [4]: 0.00529 µg/mL

B2: C5278 (protein)
chain 1: EVQLVESGGGLVQPGRSLRLSCAASGFTFDDYAIHWVRQPPGKGLEWVSGSSWNSGTIGYADSVKGRFIISRDNAKNSLYLQMNSLRAEDTALYYCAKDIRGPYDRTEEGAFDIWGQGTMVTVSS
chain 2: SYELTQPPSVSVAPGQTARITCGGNNIGSKSVHWYQQKPGQAPVLVVYDDSDRPSGIPERFSGSKSGNTATLTISRVEAGDEADYYCQVWDSNSDHRVFGGGTKLTVL
pseudovirus neutralization IC50 [1]: 0.00525 µg/mL | pseudovirus neutralization IC50 [2]: 0.0197 µg/mL | pseudovirus neutralization IC50 [3]: 0.00356 µg/mL | ELISA binding EC50 [4]: 0.00364 µg/mL

B3: C5284 (protein)
chain 1: EVQLVQSGAEVKKPGESLKISCKGSGYTFSYYWIGWVRQMPGKGLEWMGIIYPGDSDTKYSPSFQGQVTISADKSISTAYLQWSSLKASDTAMYYCARLVDIVGVTNLQGWFDPWGQGTLVTVSS
chain 2: SYELTQPPSVSVAPGQTARITCGGNNIGSKSVHWYQQRPGQAPVLVLYDGSDRPSGIPERFSGSNSENTATLTISRVEAGDEADYYCQVWDSSSDHQVFGGGTKVTVL
pseudovirus neutralization IC50 [1]: 0.195 µg/mL | pseudovirus neutralization IC50 [2]: 0.322 µg/mL | pseudovirus neutralization IC50 [3]: 0.138 µg/mL | ELISA binding EC50 [4]: 0.00769 µg/mL

B4: C5050 (protein)
chain 1: QVQLQESGPGLVKPSETLSLTCTVSGGSISGYYWSWIRQPPGKGLEWIGYIYYSGSTNYNPSLKSRVTISIDTSKNQFSLKLSSVTAADTAVYYCVRDDGGNGFPYYGMDVWGQGTTVTVSS
chain 2: EIVLTQSPATLSLSPGERATLSCRASQSVRSYLAWYQQKPGQAPRLLIYDASNRATGIAARFSGSGSGTDFTLTISSLEPEDFAVYYCQQRSNWPPEITFGPGTKVDIK
pseudovirus neutralization IC50 [1]: > 1 µg/mL | pseudovirus neutralization IC50 [2]: > 1 µg/mL | pseudovirus neutralization IC50 [3]: 0.857 µg/mL | ELISA binding EC50 [4]: 0.00829 µg/mL

B5: C5283 (protein)
chain 1: EVQLVESGGGLVQPGGSLRLSCAASGFTFTNYDMYWVRQVRGKGLEWVSVIGTGGDTYYSDSVKGRFSVSRDNAKNSLYLQMNALRAGDTAVYYCARENRPPGPSYGVYGMDVWGQGTTVTVSS
chain 2: DIQMTQSPSSLSASVGDRVTITCRASQSISTYLNWYQQKPGKAPKLLIYASSTLQSGVPSRFSGSGSGTDFTLTISSLRPEDFATYYCQQNYVTPSLTFGGGTKVEIK
pseudovirus neutralization IC50 [1]: > 1 µg/mL | pseudovirus neutralization IC50 [2]: > 1 µg/mL | pseudovirus neutralization IC50 [3]: 0.922 µg/mL | ELISA binding EC50 [4]: 0.00629 µg/mL

B6: C5289 (protein)
chain 1: EVQLLESGGGLVQPGGSLRLSCAASGFTLSDYAMSWVRLAPGKGLEWVSSISGSGAKTHYADSVKGRFTISRDNSKNTLFLQMNSLRAEDTGLYYCAKAYCGVSCYSYILDREDAFDIWGQGTMVTVSS
chain 2: QSVLTQPPSASGTPGQRVTISCSGSSSNIGSNSVYWYQQLPGTAPKLLIFRNNQRPSGVPDRFSGSKSGTSASLAISGLRSEDEADYYCAVWDDTLSGPVFGGGTRLTVL
pseudovirus neutralization IC50 [1]: > 1 µg/mL | pseudovirus neutralization IC50 [2]: 0.603 µg/mL | pseudovirus neutralization IC50 [3]: 0.016 µg/mL | ELISA binding EC50 [4]: 0.00407 µg/mL

B7: C5051 (protein)
chain 1: QVQLVQSGAEVKKPGSSVKVSCKVSGGTFSSYAISWVRQAPGQGLEWMGGIIPLFGRTNYAQKFQGRVTITADESTSTAYMELSSLRSEDTAVFYCATYGDIVYGANVLDYWGQGTLVIVSS
chain 2: EIVLTQSPGTLSLSPGERATLSCGASQSVSNNYLAWYQQRPGQAPRLLIYGVSSRAPGIPDRFSGSGSGTDFTLTISRLEPEDFAVYYCQQYGTSRTFGQGTKVEIK
pseudovirus neutralization IC50 [1]: > 1 µg/mL | pseudovirus neutralization IC50 [2]: > 1 µg/mL | pseudovirus neutralization IC50 [3]: > 1 µg/mL | ELISA binding EC50 [4]: 0.0176 µg/mL

B8: C5286 (protein)
chain 1: QVQLVESGGGAVQPGRSLRLSCAASGFIFTTFGMHWVRQAPGKGLEWVAVIWSDGSGKHYADSVKGRFTISRDNAKNTLYLQMNNLGAEDTAVYYCARDWGDMTTLFDYWGQGTLVTVSS
chain 2: DIQMTQSPSSLSASVGDRVTITCRASQSVRSFLNWYQQKPGKAPKLLIYGASSLQSGVPSRFSGSGSGTEFTLTISSLQPEDFATYYCQQSYETPPWTFGQGTKVEIK
pseudovirus neutralization IC50 [1]: > 1 µg/mL | pseudovirus neutralization IC50 [2]: 0.865 µg/mL | pseudovirus neutralization IC50 [3]: 0.101 µg/mL | ELISA binding EC50 [4]: 0.00363 µg/mL

B9: C5287 (protein)
chain 1: QVQLVQSGAEVKKPGSSVKVSCKSSGGSFSSYAINWVRQAPGQGLEWMGGIVPIFGTLTFAQRFEGRLTITADESTGTAYMELSNLRSEDTAVYYCARDIEVAPLYGMDVWGQGTTVTVSS
chain 2: DIQMTQSPSSLSASVGDRVTITCRASQSISRYLNWYQQKPGKAPKLLIYGASSLQSGVPSRFSGSGSGTEFTLTISSLQPEDFATYYCQQSYSTPPITFGQGTRLEIK
pseudovirus neutralization IC50 [1]: 0.01 µg/mL | pseudovirus neutralization IC50 [2]: > 1 µg/mL | pseudovirus neutralization IC50 [3]: 0.0533 µg/mL | ELISA binding EC50 [4]: 0.00279 µg/mL

B10: C5288 (protein)
chain 1: EVQLVESGGGLVQPGGSLRLSCAASGFTFSTYDMHWVRQAPGKGLEWVSLIAKDGESHYSDSVKGRFTIFREEAKNSLYLHMNSLRAEDTAVYYCARVGYSGYDFYGMDVWGQGTTVTVSS
chain 2: SYELTQPPSVSVSPGQTARITCSGDAFPNQYAYWYQQKPGQAPVLVIYKDTERPSGIPERFSGSSSGTTVTLTIGGVQVEDEADYYCQSGDSRLWVFGGGTKLTVL
pseudovirus neutralization IC50 [1]: > 1 µg/mL | pseudovirus neutralization IC50 [2]: 0.843 µg/mL | pseudovirus neutralization IC50 [3]: 0.112 µg/mL | ELISA binding EC50 [4]: 0.00602 µg/mL

B11: C5279 (protein)
chain 1: EVQLVQSGAEVKKPGESLRISCKGSGYSFISYWITWVRQMPGKGLEWMGRIDSSDSYTNYSPSFQGHVTMSVDRSTNTAFLQWSSLKASDTAIYYCARRMMLKSVGLELDAFDIWGQGTMVTVSS
chain 2: DIQMTQSPSSLSASVGDRVTITCQASQNIGNHLNWYQQKPGKAPTLLIYDTSNLETGVPSRFSGSGSGTDFTLTISSLQPDDIATYYCQQYDSRGYSFGPGTKLEIK
pseudovirus neutralization IC50 [1]: > 1 µg/mL | pseudovirus neutralization IC50 [2]: > 1 µg/mL | pseudovirus neutralization IC50 [3]: 0.00205 µg/mL | ELISA binding EC50 [4]: 0.00381 µg/mL

B12: C5277 (protein)
chain 1: QVQLVQSGAEVKKPGASVRLSCKASGYTFTSSYIHWVRQAPGQGLECVGIINPSGGSTTYPQKFQGRVTMTRDTSSSTVYMELSSLRSEDTAVYFCAREGCSRTTCYDYWGQGTLVTVSS
chain 2: SYELTQPPSVSVAPGQTARITCGENNIGSKSVHWYQQKPGQAPVLVVYDDSDRPSGIPERFSGSNSGNTATLTISRVEAGDEADYYCQVWDGSTDQHVVFGGGTKLTVL
pseudovirus neutralization IC50 [1]: > 1 µg/mL | pseudovirus neutralization IC50 [2]: > 1 µg/mL | pseudovirus neutralization IC50 [3]: 0.951 µg/mL | ELISA binding EC50 [4]: 0.00547 µg/mL

B13: C5282 (protein)
chain 1: QVQLVQSGAEVKKPGSSVKVSCKASGGTFSSYTISWVRQAPGQGLEWMGRIIPALGIANYAQKFQGRVTITADKSTSTAYMELSSLRSEDTAVFYCARDRGMRDWYFDLWGRGTLVTVSS
chain 2: QSVLTQPPSVSGAPGQRVTISCTGSNSNIGAGYDVHWYQQLPGTAPKLLIYVNSNRPSGVPDRFSASKSDTSASLAITGLQAEDEADYYCQSYDSSLSDVVFGGGTKLTVL
pseudovirus neutralization IC50 [1]: 0.11 µg/mL | pseudovirus neutralization IC50 [2]: > 1 µg/mL | pseudovirus neutralization IC50 [3]: 0.196 µg/mL | ELISA binding EC50 [4]: 0.00547 µg/mL

B14: C5281 (protein)
chain 1: QLQLQESGPGLLKPSETLSLTCTVSGGSISSSSYYWGWIRQPPGKGLEWIASIFYSGSPYYNPSLQSRVTISVDTSKNQFSLRLSSVTAADTAVYYCARLAVIGGRWLQLSNFQHWGQGTLVTVSS
chain 2: QSVLTQPPSVSGAPGQRVTISCTGSSSNIGAGYDVHWYQQLPGTAPKLLIYDNSNRPSGVPDRFSASKSGTSASLAITGLQAEDEADYYCQSYDSSLSGFYVFGTGTTVTVL
pseudovirus neutralization IC50 [1]: > 1 µg/mL | pseudovirus neutralization IC50 [2]: > 1 µg/mL | pseudovirus neutralization IC50 [3]: 0.39 µg/mL | ELISA binding EC50 [4]: 0.0607 µg/mL

B15: C5327 (protein)
chain 1: QVQLVQSGAEVKKPGSSVKVSCKASGGTFRNYAISWVRQAPGEGLEWMGRIILTFGIANYAQNFQGRVTITADESTSTVYMELSSLRSDDTAIYYCAREGVSYLGSGTYPYFDYWGQGTLVTVSS
chain 2: QSALTQPRSVSGSPGQSVTISCTGTSSDVGGYDYVSWYQQHPGKAPKLMIYDVTRRPSGVPDRFSGSKSGNTASLTISGLQAEDEGDYYCCSYTGTYTYNYVFGTGTKVTVL
pseudovirus neutralization IC50 [1]: 0.0212 µg/mL | pseudovirus neutralization IC50 [2]: 0.00395 µg/mL | pseudovirus neutralization IC50 [3]: 0.00156 µg/mL | ELISA binding EC50 [4]: 0.00543 µg/mL

Recombinant human monoclonal antibodies (heavy:light variable regions). ELISA EC50 on the named antigen, from 10 µg/ml down; IC50 against spike pseudovirus on HT1080-ACE2 cells, 48 h; lower = stronger. Calls: IC50 above 1,000 ng/ml = non-neutralizing; EC50 above 1,000 ng/ml = non-binder.
